Km, kcat and Ki data for two compounds are collected here from PMC8190136, “Structural insight on assembly-line catalysis in terpene biosynthesis” (Nature Communications, 2021).

As a reminder, the Km is the concentration of substrate that gives half-maximal velocity. One may read the kcat as the maximal rate divided by the concentration of active sites.

Data set [1] relates to CC(C)=CCOP(=O)(O)OP(=O)(O)O. Description: purified protein. As to conditions: prenyltransferase reaction, co-substrate 600 µM IPP, sigmoidal, Hill n = 2.0 ± 0.3, 1.79 µM PaFS, 50 mM Tris-HCl pH 7.5, 1 mM MgCl2, 21°C.
Data set [2] deals with CC(C)=CCC/C(C)=C/CC/C(C)=C/CC/C(C)=C/COP(=O)(O)OP(=O)(O)O. Description: purified protein. The following applies: cyclase reaction, sigmoidal with substrate inhibition, Hill n = 3.0 ± 0.4, fit to [GGPP] ≤ 80 µM, 50 nM PaFS, 50 mM Tris-HCl pH 7.5, 1 mM MgCl2, 21°C.
The target of data set [3] is fusicoccadiene synthase (PaFS), full-length wild-type (Diaporthe amygdali, UniProt A2PZA5). As to conditions: substrate inhibition by GGPP in cyclase reaction; fit to [GGPP] ≤ 80 µM; Hill n = 3.0; 50 nM PaFS, 50 mM Tris-HCl pH 7.5, 1 mM MgCl2, 21°C.
Sequence of fusicoccadiene synthase (PaFS), full-length wild-type (A2PZA5 whole entry, looked up): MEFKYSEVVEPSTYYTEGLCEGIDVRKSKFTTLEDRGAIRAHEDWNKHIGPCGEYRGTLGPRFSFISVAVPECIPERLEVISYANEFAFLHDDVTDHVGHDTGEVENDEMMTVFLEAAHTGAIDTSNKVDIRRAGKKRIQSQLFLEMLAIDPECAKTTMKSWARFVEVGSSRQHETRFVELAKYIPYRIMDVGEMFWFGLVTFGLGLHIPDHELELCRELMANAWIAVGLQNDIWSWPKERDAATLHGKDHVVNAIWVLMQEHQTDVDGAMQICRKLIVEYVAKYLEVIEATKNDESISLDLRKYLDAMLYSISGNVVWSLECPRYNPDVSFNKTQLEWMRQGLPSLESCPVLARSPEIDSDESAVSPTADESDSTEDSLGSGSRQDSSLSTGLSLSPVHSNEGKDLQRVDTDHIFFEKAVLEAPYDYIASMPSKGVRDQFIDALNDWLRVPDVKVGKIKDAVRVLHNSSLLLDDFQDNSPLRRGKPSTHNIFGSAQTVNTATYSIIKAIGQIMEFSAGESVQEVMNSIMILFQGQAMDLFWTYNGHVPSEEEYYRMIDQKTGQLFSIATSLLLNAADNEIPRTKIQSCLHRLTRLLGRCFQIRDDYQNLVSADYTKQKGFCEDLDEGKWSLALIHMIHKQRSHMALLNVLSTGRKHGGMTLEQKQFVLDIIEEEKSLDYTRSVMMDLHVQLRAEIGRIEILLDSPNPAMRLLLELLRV

Regarding “fusicoccadiene synthase (PaFS), full-length wild-type (Diaporthe amygdali)”, in data set [1], the Km stood at 139 ± 16 µM and the kcat was 1.01 ± 0.09 × 10^-3 s^-1. Besides, in data set [2], the Km was determined as 6.4 ± 0.4 µM and the kcat worked out at 0.059 ± 0.004 s⁻¹.
For `CC(C)=CCC/C(C)=C/CC/C(C)=C/CC/C(C)=C/COP(=O)(O)OP(=O)(O)O` [GGPP], the Ki in data set [3] is given as 290 ± 60 µM.
